This note sets out measurements from publication PMC9911399, “Two distinct binding modes provide the RNA-binding protein RbFox with extraordinary sequence specificity”.

Where a chain is given by its changes, count along the chain named. This is one part of the list.

B1: CCACAGG (DNA:RNA)
RNA: GGGAGACCGGAAUUCAGAUUGUCCCCACAGGUUAAAUCCCGUCGUAGCCACCA
DNA 1: CAATCTGAATTCCGGTCTCCC
DNA 2: TGGTGGCTACGACGGGATT
B2: UGAGUCG (DNA:RNA)
RNA: B1 RNA with C25U, C26G, C28G, A29U, G30C
DNA 1: CAATCTGAATTCCGGTCTCCC
DNA 2: TGGTGGCTACGACGGGATT
B3: CCGAUUG (DNA:RNA)
RNA: B1 RNA with A27G, C28A, A29U, G30U
DNA 1: CAATCTGAATTCCGGTCTCCC
DNA 2: TGGTGGCTACGACGGGATT
B4: GCCUUCC (DNA:RNA)
RNA: B1 RNA with C25G, A27C, C28U, A29U, G30C, G31C
DNA 1: CAATCTGAATTCCGGTCTCCC
DNA 2: TGGTGGCTACGACGGGATT
B5: GGCAAAU (DNA:RNA)
RNA: B1 RNA with C25G, C26G, A27C, C28A, G30A, G31U
DNA 1: CAATCTGAATTCCGGTCTCCC
DNA 2: TGGTGGCTACGACGGGATT
B6: UAAAUAG (DNA:RNA)
RNA: B1 RNA with C25U, C26A, C28A, A29U, G30A
DNA 1: CAATCTGAATTCCGGTCTCCC
DNA 2: TGGTGGCTACGACGGGATT
B7: GCAAUUC (DNA:RNA)
RNA: B1 RNA with C25G, C28A, A29U, G30U, G31C
DNA 1: CAATCTGAATTCCGGTCTCCC
DNA 2: TGGTGGCTACGACGGGATT
B8: UAAGGCC (DNA:RNA)
RNA: B1 RNA with C25U, C26A, C28G, A29G, G30C, G31C
DNA 1: CAATCTGAATTCCGGTCTCCC
DNA 2: TGGTGGCTACGACGGGATT
B9: GAAGUUA (DNA:RNA)
RNA: B1 RNA with C25G, C26A, C28G, A29U, G30U, G31A
DNA 1: CAATCTGAATTCCGGTCTCCC
DNA 2: TGGTGGCTACGACGGGATT
B10: UAGCCGC (DNA:RNA)
RNA: B1 RNA with C25U, C26A, A27G, A29C, G31C
DNA 1: CAATCTGAATTCCGGTCTCCC
DNA 2: TGGTGGCTACGACGGGATT
B11: AAAUCAC (DNA:RNA)
RNA: B1 RNA with C25A, C26A, C28U, A29C, G30A, G31C
DNA 1: CAATCTGAATTCCGGTCTCCC
DNA 2: TGGTGGCTACGACGGGATT
B12: GCCUAUC (DNA:RNA)
RNA: B1 RNA with C25G, A27C, C28U, G30U, G31C
DNA 1: CAATCTGAATTCCGGTCTCCC
DNA 2: TGGTGGCTACGACGGGATT
B13: GAGUCCC (DNA:RNA)
RNA: GGGAGACCGGAAUUCAGAUUGUCCGAGUCCCUUAAAUCCCGUCGUAGCCACCA
DNA 1: CAATCTGAATTCCGGTCTCCC
DNA 2: TGGTGGCTACGACGGGATT
B14: GGAAUGU (DNA:RNA)
RNA: B1 RNA with C25G, C26G, C28A, A29U, G31U
DNA 1: CAATCTGAATTCCGGTCTCCC
DNA 2: TGGTGGCTACGACGGGATT
B15: UUACGCU (DNA:RNA)
RNA: B1 RNA with C25U, C26U, A29G, G30C, G31U
DNA 1: CAATCTGAATTCCGGTCTCCC
DNA 2: TGGTGGCTACGACGGGATT
B16: GUAUCUU (DNA:RNA)
RNA: B13 RNA with A26U, G27A, C30U, C31U
DNA 1: CAATCTGAATTCCGGTCTCCC
DNA 2: TGGTGGCTACGACGGGATT
B17: GGAGGUU (DNA:RNA)
RNA: B1 RNA with C25G, C26G, C28G, A29G, G30U, G31U
DNA 1: CAATCTGAATTCCGGTCTCCC
DNA 2: TGGTGGCTACGACGGGATT
B18: ACGCGGA (DNA:RNA)
RNA: B1 RNA with C25A, A27G, A29G, G31A
DNA 1: CAATCTGAATTCCGGTCTCCC
DNA 2: TGGTGGCTACGACGGGATT
B19: CCCUAGG (DNA:RNA)
RNA: B1 RNA with A27C, C28U
DNA 1: CAATCTGAATTCCGGTCTCCC
DNA 2: TGGTGGCTACGACGGGATT
B20: AGCUGAA (DNA:RNA)
RNA: B13 RNA with G25A, A26G, G27C, C29G, C30A, C31A
DNA 1: CAATCTGAATTCCGGTCTCCC
DNA 2: TGGTGGCTACGACGGGATT

The target in the assay is T1, RBFOX1 RRM RbFoxmut (Fox-RRM*) (Homo sapiens, UniProt Q9NWB1 109-208, R118D;E147R;N151S;E152T).
T1 sequence: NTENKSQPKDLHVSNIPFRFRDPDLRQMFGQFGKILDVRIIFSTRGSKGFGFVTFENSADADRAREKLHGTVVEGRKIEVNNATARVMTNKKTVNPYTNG
The experiment in a line: EMSA; HiTS-Eq, 1 nM pool, 10 min; buffer printed only for the single-RNA assays: 10 mM Tris pH 7.5, 150 mM NaCl, 3.4 mM EDTA, 0.001% NP-40, 30 C. As to conditions: tags: His6 N-terminal (pET28a); label: 5' 32P. A digest of the protocol: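 Purified RbFox RRM (wild type or mutant) was equilibrated for 10 min in 50 µL with 1 nM of a 5′-radiolabelled pool of RNA with 7 randomized nucleotides, its flanks annealed to DNA oligonucleotides, across increasing protein concentrations. Free RNA was separated by 8% native PAGE, excised, reverse-transcribed, PCR-barcoded and sequenced on an Illumina HiSeq 2500. Relative association constants came from read-count changes of each variant against the control reaction, normalised to the cognate motif.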
Background: In EMSA bound probe runs differently from free probe, usually more slowly.
With B1, the binding signal is 0.0929 KA relative to UGCAUGU.

As to B2, the binding signal is 0.177 KA relative to UGCAUGU.

B3: the binding signal is 0.181 KA relative to UGCAUGU.

With B4, the binding signal was 0.118 KA relative to UGCAUGU.

Turning to B5, the binding signal is 0.0624 KA relative to UGCAUGU.

B6: the binding signal was 0.0827 KA relative to UGCAUGU.

Take B7: the binding signal was 0.0484 KA relative to UGCAUGU.

For B8, the binding signal is 0.186 KA relative to UGCAUGU.

In the case of B9, the binding signal was 0.113 KA relative to UGCAUGU.

In the case of B10, the binding signal is 0.09 KA relative to UGCAUGU.

For the molecule B11, the binding signal was 0.0617 KA relative to UGCAUGU.

With B12, the binding signal was 0.0555 KA relative to UGCAUGU.

On to B13, for which the binding signal was 0.0538 KA relative to UGCAUGU.

Take B14: the binding signal is 0.959 KA relative to UGCAUGU.

On to B15, for which the binding signal was 0.0947 KA relative to UGCAUGU.

With B16, the binding signal was 0.176 KA relative to UGCAUGU.

As for B17, the binding signal was 0.092 KA relative to UGCAUGU.

With B18, the binding signal was 0.0674 KA relative to UGCAUGU.

As to B19, the binding signal was 0.0788 KA relative to UGCAUGU.

Turning to B20, the binding signal was 0.0716 KA relative to UGCAUGU.
